# Laboratory results from publication PMC4336329 (PLoS ONE, 2015).
# Hit rate of the full screen: of about 310,000 compounds, about 2,200 (0.71%) showed an effect of 50% or more. Effects have a minus sign here. The list shows a part of the results.
# Target: human ether-à-go-go-related gene (hERG) potassium channel (human, UniProt Q12809)
# Test: primary screen, population patch clamp on CHO cells stably expressing hERG
# Sequence of human ether-à-go-go-related gene (hERG) potassium channel (Q12809 whole entry, looked up): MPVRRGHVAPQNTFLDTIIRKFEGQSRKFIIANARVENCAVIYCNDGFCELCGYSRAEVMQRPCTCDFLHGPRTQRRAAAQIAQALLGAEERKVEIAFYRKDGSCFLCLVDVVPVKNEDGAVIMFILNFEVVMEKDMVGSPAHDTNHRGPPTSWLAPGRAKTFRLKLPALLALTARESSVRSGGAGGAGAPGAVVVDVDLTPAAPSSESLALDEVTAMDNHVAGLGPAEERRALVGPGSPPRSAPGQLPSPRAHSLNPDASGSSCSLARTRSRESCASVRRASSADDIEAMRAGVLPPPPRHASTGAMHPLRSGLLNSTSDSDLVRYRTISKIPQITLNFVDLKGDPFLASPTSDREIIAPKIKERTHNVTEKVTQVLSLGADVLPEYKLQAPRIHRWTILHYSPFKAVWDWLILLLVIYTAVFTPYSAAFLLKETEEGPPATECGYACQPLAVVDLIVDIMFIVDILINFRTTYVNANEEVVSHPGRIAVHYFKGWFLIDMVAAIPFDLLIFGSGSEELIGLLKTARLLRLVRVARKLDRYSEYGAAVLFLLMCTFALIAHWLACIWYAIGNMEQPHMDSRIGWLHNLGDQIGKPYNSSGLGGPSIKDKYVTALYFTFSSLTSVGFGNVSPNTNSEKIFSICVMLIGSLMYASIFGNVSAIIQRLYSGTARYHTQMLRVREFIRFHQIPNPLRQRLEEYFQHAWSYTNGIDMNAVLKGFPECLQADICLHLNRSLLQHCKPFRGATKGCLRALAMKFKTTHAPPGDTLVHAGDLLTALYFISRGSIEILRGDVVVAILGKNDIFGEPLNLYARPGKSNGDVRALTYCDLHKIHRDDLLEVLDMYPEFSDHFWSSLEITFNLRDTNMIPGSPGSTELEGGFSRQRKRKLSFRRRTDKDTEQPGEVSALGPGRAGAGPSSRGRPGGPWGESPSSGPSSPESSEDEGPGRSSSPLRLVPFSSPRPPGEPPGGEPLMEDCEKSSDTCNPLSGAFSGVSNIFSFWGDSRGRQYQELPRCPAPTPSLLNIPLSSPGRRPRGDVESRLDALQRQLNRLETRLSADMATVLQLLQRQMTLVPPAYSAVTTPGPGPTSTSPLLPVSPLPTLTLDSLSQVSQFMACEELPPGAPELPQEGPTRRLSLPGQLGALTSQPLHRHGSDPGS
row,SMILES,"hERG current change (%, negative = inhibition) at 1uM [%]"
1,Cc1cccc2c1c(N=NC(N)=S)c(O)n2C1OC(CO)C(O)C(O)C1O (centres unmarked),11.7
2,CC1(C)Cc2c(C#N)c(OCC(=O)c3ccc(Cl)cc3)nc(-c3ccco3)c2CO1,10.6
3,CCC(=O)N=c1sc2c(OC)ccc(OC)c2n1C,14.9
4,O=C(/C=C\c1cccs1)c1c(O)ccc2ccc(=O)oc12,17.7
5,COc1cccc(CN2CCNC(=O)C2CC(=O)O)c1OC (centres unmarked),15.7
6,COc1ccccc1NS(=O)(=O)c1ccc(C(=O)N2CCCCCCC2)cc1,6.84
7,CCCCC(=O)N/N=C(/C)C1=C(C)C(C)(C)OC1=O,11.8
8,CCn1nnc(C(=O)O)c1C(=O)O,6.59
9,CC(C)=CC(=O)OCC(=O)Nc1nc(C)c(Cl)cc1Cl,8.61
10,COc1cccc(CN(C(=O)c2cc3ccccc3oc2=O)C2CC2)c1,-0.672
11,Cc1nc2c(C(=O)Nc3ccc(N4CCCC(O)C4)cc3)snc2c(=O)[nH]1 (centres unmarked),11.8
12,COc1ccc(C/C(N)=N/O)cc1,9.2
13,Cc1ccnc(N2CCCC(C(=O)Nc3cccc(C)c3C)C2)n1 (centres unmarked),14.2
14,O=C1c2ccccc2C2(c3ccc(Cl)cc3)NCCN12 (centres unmarked),19.7
15,CC(C)(C)NC(=O)[C@]1(C)CCC[C@@]2(C)C3CC[C@@]4(C)C[C@]3(CCC21)CC4=O (some centres unmarked),1.96
16,O=C(NCc1ccccn1)c1cccc(NS(=O)(=O)c2cccc(F)c2)c1,6.56
17,CCc1cccc2c(C#N)cn(CCOc3ccccc3OC)c12,1.7
18,CN1CCN(C2=C(Cl)C(=O)N(c3ccc(Cl)c(Cl)c3)C2=O)CC1,16.5
19,COC(CNC(=O)c1ccc2c(c1)ncn2-c1ccc(F)c(F)c1)OC,-5.49
20,O=C(COc1ccc(Cl)cc1Cl)NN1C(=O)C2C3C=CC(C3)C2C1=O (centres unmarked),1.31
21,O=C(Nc1cccc([N+](=O)[O-])c1)C1C2CCCCC21 (centres unmarked),16.2
22,CCc1ccc(OC(=O)Cc2ccc(OC)c(S(=O)(=O)N3CCOCC3)c2)cc1,6.4
23,O=C1C(Cl)=C(N2CCCCCC2)C(=O)N1c1ccccc1,6.03

row,SMILES,"hERG current change (%, negative = inhibition) at 1uM [%]"
1,CC(=O)Oc1c(S(=O)(=O)c2ccc(C)cc2)c(C)nn1C(C)(C)C,8.56
2,COc1ccccc1NC(=O)C1=C(C)NC(=O)NC1c1cc(C)cs1 (centres unmarked),6.28
3,O=C(NC(Cc1c[nH]c2ccccc12)C(=O)OCC(=O)c1cccc2ccccc12)c1cccs1 (centres unmarked),0.711
4,COC(=O)c1ccc(NC(=O)c2cc(-c3ccccn3)nc3ccccc23)cc1,11.1
5,Cc1cc(C)cc(N(C(=O)c2sc(C)nc2C)C(C(=O)NCc2ccco2)c2ccccc2)c1 (centres unmarked),15.5
6,Cn1c(C(=O)NCc2cccnc2)cc2sc(Cl)cc21,-7.81
7,COc1cccc(OCC(=O)NC2CCCCC2)c1,8.09
8,COc1ccc(C(=O)/C(=C\c2sccc2C)c2nc3ccccc3o2)cc1,8.11
9,COc1ccc(N(C(=O)CCl)C(C(=O)NCCc2ccccc2)c2cccs2)cc1Cl (centres unmarked),9.55
10,Cc1ccc2nc3c(c(C(=O)OCC(=O)N(C)C4CCS(=O)(=O)C4)c2c1)CCCC3 (centres unmarked),6.9
11,COc1ccc(NC(=O)c2cc(-c3ccco3)on2)cc1,10.5
12,CN(C)c1ccc(-c2nc3n(n2)C(c2cccnc2)C2=C(CC(C)(C)CC2=O)N3)cc1 (centres unmarked),-3.74
13,CCCCn1c(SCC(=O)Nc2cc(C)on2)nnc1-c1cccnc1,3.95
14,O=C(CN1CCN(Cc2ccccc2)CC1)Nc1cccc(Br)c1,-16.7
15,CC1CCN(c2ccccc2NC(=O)c2ccc(C#N)cc2F)CC1,3.67
16,CN1C(C(=O)Nc2ncccn2)=C(O)c2ccccc2S1(=O)=O,6.7
17,CN(C)C(CNC(=O)c1cccnc1Sc1ccccc1)c1ccco1 (centres unmarked),1.11
18,CCCc1nn(-c2cc(Cl)ccc2OC)c2c1C(=O)CCC2,10.8
19,Cc1ccc2c(c1)COc1c3ccc(C(=O)NCC4CC4)cc3nn1-2,2.92
20,O=C(Nc1nccs1)Oc1ccccc1,7.21
21,O=C1CCCc2oc3ccc(O)cc3c21,2.65
22,CC(=O)Nc1ccc(NC(=O)CSc2nnc(-c3ccccc3)n2Cc2ccc3c(c2)OCO3)cc1,-2.18
23,Cc1ccc(C2N(C)c3ccccc3-c3nc4ccccc4n32)o1 (centres unmarked),7.19

row,SMILES,"hERG current change (%, negative = inhibition) at 1uM [%]"
1,C=CCN1C(=O)NC(=O)/C(=C/c2cccn2C)C1=O,4.87
2,Nc1nnnn1/N=C/c1cc(Br)ccc1O,11.9
3,O=C(c1ccc(F)c(S(=O)(=O)N2CCOCC2)c1)N(CCc1ccccc1)Cc1ccccc1,-10.2
4,CC(=O)N1CCN(C(=O)c2ccc(S(=O)(=O)Nc3ccccc3F)cc2)CC1,12.9
5,COC(=O)[C@@H](N)CS.Cl,15.6
6,CCN(C(=O)COC(=O)c1cc(S(=O)(=O)N(C)C)ccc1Cl)C1CCS(=O)(=O)C1 (centres unmarked),14.7
7,COc1ccc(CN(C)C(C)C(=O)NC2CCCc3ccccc32)cc1 (centres unmarked),-10.9
8,O=C(Cc1ncc(C(F)(F)F)cc1Cl)NCCc1ccccn1,9.02
9,CN(C(=O)COC(=O)c1ccc(=O)n(Cc2ccccc2)n1)c1ccccc1,3.66
10,CC(C)CSc1nc2ccccc2c(=O)[nH]1,1.81
11,COc1ccc(NC(=O)CSc2nnc(Cc3cccn3C)n2-c2ccc(OC)cc2)cc1,2.51
12,CCN(c1ccccc1)S(=O)(=O)c1ccc(Cl)c(NC(=O)CSc2nncs2)c1,-3.09
13,COc1ccc(C(=O)OCC(=O)c2ccc[nH]2)cc1,5.17
14,Cc1nc2sc(C(c3ccc(Cl)cc3)N3CC(C)OC(C)C3)c(O)n2n1 (centres unmarked),9.08
15,CCSc1nnc(Nc2ccccc2)s1,7.72
16,Cc1ccc(C)c(NC(=O)COC(=O)c2ccc3ccccc3n2)c1,-1.42
17,CCOC(=O)c1cccc(NS(=O)(=O)c2ccc(NC(C)=O)cc2)c1,4.77
18,Cc1nc(NCCO)c(C#N)c2c1COC(C)(C)C2,1.43
19,O=C1CC(c2ccccc2)CC(=O)C1=CN1CCCC1 (centres unmarked),15.6
20,CC(C)CNC(=O)c1ccccc1NC(=O)CN(c1ccccc1)S(=O)(=O)N(C)C,8.42
21,O=C(CCc1c[nH]c2ccccc12)NCCOc1ccccc1,6.46
22,CCCCN(C)C(=S)Nc1ccsc1C(=O)OC,9.15
23,Cc1cc2oc(=O)cc(-c3cc4ccccc4o3)c2cc1O,18.8

row,SMILES,"hERG current change (%, negative = inhibition) at 1uM [%]"
1,CC(=O)NC(CCS(C)(=O)=O)C(=O)Nc1cc(C)ccc1C (centres unmarked),6.99
2,O=C(NNC(=O)C1CCN(S(=O)(=O)c2ccc(Cl)cc2)CC1)c1ccccc1O,6.85
3,O=C(CN1N=C(c2ccccc2)CCC1=O)NCc1ccco1,10.7
4,O=C(CNC(=O)N1CC(=O)Nc2ccccc21)NCc1ccccc1,15.1
5,CC(C)(C)c1ccc(C(=O)NCC(=O)O)cc1,16.1
6,CCC(c1nnc(SCC(=O)Nc2c(F)cccc2F)n1Cc1ccccc1)N(C)C (centres unmarked),12.3
7,Cc1cc2ncn(-c3ncccc3[N+](=O)[O-])c2cc1C,13.9
8,COC(=O)C1=C(C)NC(=O)/C1=C\c1cc(C)n(-c2cccc(C)c2)c1C,13.1
9,CCC(=O)N1CCc2cc(Br)cc(S(=O)(=O)NCCCN(C)Cc3ccccc3)c21,5.84
10,O=C(NCc1cccnc1)/C(=C\c1ccc(-c2ccc(Br)cc2)o1)S(=O)(=O)c1ccccc1,12.2
11,C=CCNC(=O)NC(=O)CSc1nc2cc([N+](=O)[O-])ccc2n1-c1cccc(C(F)(F)F)c1,13.5
12,CC1CCCN(C(=O)c2ccc(S(=O)(=O)N3CCC(c4nc5ccccc5s4)CC3)cc2)C1 (centres unmarked),1.19
13,CCc1nc2ccccc2c(C(=O)Oc2cccc3cccnc23)c1C,9.15
14,CC(C)CN(C(=O)COC(=O)CCc1c[nH]c2ccccc12)c1c(N)n(Cc2ccccc2)c(=O)[nH]c1=O,-3.99
15,Cc1nc(NCc2cccnc2)c2c3c(sc2n1)CC(C)CC3 (centres unmarked),2.85
16,Nc1ncnc2c1ncn2[C@H]1C[C@H](O)[C@@H](COP(=O)(O)O)O1,8.97
17,Cc1ccccc1-n1c(=S)[nH]c2nc3c(cc2c1=O)CCCC3,9.53
18,COc1cc2c(cc1OC)CN(CC(=O)Nc1cccc(C(F)(F)F)c1)CC2,9.6
19,COc1ccccc1C(=O)NCCC(=O)NCC(c1ccco1)N1CCCCC1 (centres unmarked),14.6
20,CCOC(=O)c1nc(C)sc1-c1ccnn1S(=O)(=O)c1ccccc1C(F)(F)F,2
